According to PubChem BioAssay AID686979 (National Center for Advancing Translational Sciences (NCATS), 2013):
Screen size: about 420,000 compounds; about 50,000 (12%) were called active. This list was built around the results that the source calls inconclusive (neither active nor inactive); the mix of calls is not that of the screen. Calls follow the shape of the dose curve; as a rule, active = well fitted inhibition curve with a large enough effect; inconclusive = small, poorly fitted or top-dose-only effect; inactive = flat fitted curve, though single readings scatter. Potencies of inconclusive entries are left out as doubtful fits.

Assay: qHTS for Inhibitors of human tyrosyl-DNA phosphodiesterase 1 (TDP1): qHTS in cells in presence of CPT; also: nearly all actives have a fitted effect of over 55% in size
Details: chicken DT40 Tdp1-/-;hTDP1 cells + 20 nM CPT, ATP luminescence, 48 h; activity change, negative = growth inhibition: at 46.2 µM (top of the series) unless noted
Method in brief: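 Chicken DT40 Tdp1-/- cells stably complemented with human TDP1 were seeded at 400 cells/well in medium containing 20 nM camptothecin, exposed to pin-transferred compounds, and grown at 37 °C for at least 48 hr. Viability was read as ATP luminescence.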
% is scaled to controls: 0 for no effect and ±100 for the full control effect; potency is read from the fitted curve at half-maximal effect; tags tell the direction and shape of the fitted curve.

SMILES	Potency	activity change, negative = growth inhibition
CCCn1c(=O)c2ccccc2n2c(SCc3nnc(-c4ccccc4Br)o3)nnc12	inconclusive [inhibitor, partial curve]	–
O=C(NCCC1=CCCCC1)C1CCN(C(=O)c2ccc(Cl)cc2)CC1	inconclusive [inhibitor, single point]	–
COC(=O)c1cc(Nc2nc3ccccc3nc2NS(=O)(=O)c2ccc(C)cc2)ccc1Cl	active: 18.4 µM	–
CC(C)c1ccc(NC(=O)CSC2=Nc3ccccc3C3=NC(CCC(=O)NC4CCCCC4)C(=O)N23)cc1 (stereo unspecified)	active: 23.1 µM	–
COc1ccc(OCC(O)CNC(=O)/C=C/c2cccc([N+](=O)[O-])c2)cc1 (stereo unspecified)	inconclusive [inhibitor, single point]	–
COc1ccc(-n2c(CN3CCN(Cc4ccccc4)CC3)nc3ccc([N+](=O)[O-])cc3c2=O)c(OC)c1	inconclusive [inhibitor, single point]	–
Cn1cccc1CNC(=O)Nc1ccc(Cl)cc1	inconclusive [inhibitor, single point]	–
CCCN1CCN(c2nc(-c3cccs3)nc3ccccc23)CC1	inconclusive [inhibitor, single point]	–
Nc1ccc(S(=O)(=O)NN=Cc2ccccc2[N+](=O)[O-])cc1	inconclusive [inhibitor, single point]	–
Cc1cc(C)nc(NS(=O)(=O)c2ccc(NC(=O)c3cc(-c4ccccc4)nc4ccccc34)cc2)n1	–	inconclusive: -32% [inhibitor]
CC(Oc1ccc(Cl)cc1Cl)C(=O)N(C)c1ccccc1 (stereo unspecified)	inconclusive [inhibitor, single point]	–
COc1cccc(C(=O)N(Cc2nc(-c3cccc(C)c3)no2)C(C)C)c1OC	inconclusive [inhibitor, single point]	–
Cc1c(Cl)cccc1NC(=O)CNc1cccc(S(=O)(=O)N(C)C)c1	inconclusive [inhibitor, full curve]	–
CCCCSc1nnc(CNC(=O)C23CC4CC(CC(C4)C2)C3)n1Cc1ccccc1	active: 16.4 µM	–
Cc1ccc(C)c(Cn2nnc3c(=O)[nH]c(C4CCN(S(=O)(=O)c5ccc(S(=O)(=O)NC6CC6)cc5)CC4)nc32)c1	inconclusive [inhibitor, single point]	–
CC(=O)c1ccc2noc(-c3cccc(C)c3)c2c1	–	inactive: -4.26%
Cc1ccc(S(=O)(=O)NNC(=O)c2ccc(C(=O)N(c3ccccc3)c3ccccc3)cc2)cc1	active: 15.8 µM	–
Cc1cccc(C(=O)N=c2sccn2C)c1[N+](=O)[O-]	inconclusive [inhibitor, single point]	–
Cc1noc(C)c1S(=O)(=O)N(C)C[C@H]1Oc2c(NC(=O)Nc3ccc4c(c3)OCO4)cccc2C(=O)N([C@H](C)CO)C[C@@H]1C	–	inactive: -4.03%
CN1CCN(c2ccc(Cl)cc2NC(=O)/C=C/c2ccc(F)cc2)CC1	inconclusive [inhibitor, single point]	–
Cc1noc(C)c1-c1ccc2ncnc(NC3CCNCC3)c2c1	inconclusive [inhibitor, single point]	–
NS(=O)(=O)c1ccc(N=Nc2cc3ccccc3c(C(=O)O)c2O)cc1	active: 0.398 µM	–

SMILES	Potency	activity change, negative = growth inhibition
COc1ccc(C)cc1N(CC(=O)NC1CCCC1)C(=O)CCC(=O)Nc1cc(C)on1	–	inactive: -16.1%
O=C(CSc1nc2nn(-c3ccccc3)c(=O)c-2c2n1CCCCC2)Nc1ccc(OC(F)F)cc1	inconclusive [inhibitor, single point]	–
O=C(NCCCN1CCCC1)Nc1ccccc1[N+](=O)[O-]	–	inactive: -9.97%
Cc1ccc(C(=O)OCC(=O)Nc2ccccc2)cc1NC(=O)c1ccco1	–	inactive: -9.35%
N#CCO/N=C(\c1ccccc1)c1ccncc1	inconclusive [inhibitor, single point]	–
COc1ccc(C(=O)Nc2cccc(C(=O)OCc3cc(=O)n4nc(C5CC5)sc4n3)c2)cc1	inconclusive [inhibitor, partial curve]	–
Nc1c(C(=O)Nc2ccc(F)cc2)sc2nc(-c3cccs3)cc(C(F)(F)F)c12	inconclusive [inhibitor, single point]	–
COC(=O)c1ccc([C@@H]2Nc3c(OC)ccc(C)c3[C@@H]3C=CC[C@@H]32)cc1	inconclusive [inhibitor, single point]	–
COC(=O)c1ccc(C(=O)OC)c(NC(=O)COC(=O)C2CCCCC2)c1	inconclusive [inhibitor, single point]	–
CC(O)CNc1nc2c(c(=O)n(C)c(=O)n2C)n1C/C=C/c1ccccc1 (stereo unspecified)	active: 8.2 µM	–
Cc1cc(C)cc(NC(=O)Nc2ccccc2N2CCCCC2)c1	inconclusive [inhibitor, single point]	–
O=C(O)c1ccc(/C=C/C(=O)c2ccc3c(c2)OCCCO3)cc1	inconclusive [inhibitor, single point]	–
CCC1CCC2(CC1)NC(=O)N(CC(=O)N1CCc3ccccc31)C2=O (stereo unspecified)	inconclusive [inhibitor, single point]	–
CCOc1ccc(N=Cc2ccc([N+](=O)[O-])cc2)c(O)c1	active: 23.1 µM	–
CC1N=C2c3ccccc3N=C(SCC(=O)NCCc3ccc(Cl)cc3)N2C1=O (stereo unspecified)	inconclusive [inhibitor, single point]	–
Cc1ccccc1Cn1nc(C)c(NC(=O)c2sc3ccccc3c2Cl)c1C	inconclusive [inhibitor, single point]	–
CCCCN(c1ccccc1)S(=O)(=O)c1cccc2cccnc12	inconclusive [inhibitor, single point]	–
CSc1ccc(C(=O)C2CCCN(Cc3cccc4nccnc34)C2)cc1 (stereo unspecified)	active: 14.6 µM	–
CN1CCN(c2ccc(S(=O)(=O)N3CCCCC3)cc2NC(=O)c2ccc(F)cc2F)CC1	inconclusive [inhibitor, single point]	–
COc1cccc2c(=O)cc(C)n(CC(=O)Nc3ccc(C)c(C)c3)c12	inconclusive [inhibitor, single point]	–
Cc1ccc2cc(C)c(N3CCN(c4ccccn4)CC3)nc2c1	active: 18.4 µM	–
CCN(CC(=O)Nc1c(F)cccc1F)C(=O)c1cccc(S(=O)(=O)N(C)c2ccccc2)c1	active: 13 µM	–

SMILES	Potency	activity change, negative = growth inhibition
Cc1ccccc1N(C(=O)c1snc(C(N)=O)c1N)C(C(=O)NC1CCCCC1)c1ccc(O)cc1 (stereo unspecified)	inconclusive [inhibitor, single point]	–
O=C(Cc1ccc(Cl)cc1)NNC(=S)NC(=O)c1cccnc1	inconclusive [inhibitor, single point]	–
Cc1ccc(NC(=O)C(=O)NNC(=O)c2cccs2)cc1	inconclusive [inhibitor, single point]	–
O=C(c1ccncc1)N1N=C(C2CCCCC2)CC1(O)C(F)(F)F (stereo unspecified)	active: 2.91 µM	–
Cc1ccccc1CNC(=O)c1ccccc1SCC(=O)NCc1ccco1	inconclusive [inhibitor, partial curve]	–
COc1ccccc1C(=O)NC(C)C(c1cccs1)N1CCOCC1 (stereo unspecified)	inconclusive [inhibitor, single point]	–
CCOCc1nc(N)nc(N)c1-c1cccc(Cl)c1	active: 8.2 µM	–
Cc1cccc(-c2nn(-c3ccccc3)cc2C(=O)Nc2cccc(S(=O)(=O)NC3=NCCC3)c2)c1	inconclusive [inhibitor, single point]	–
CCCCCN(C(=O)CCC(=O)OCCOc1ccccc1Cl)c1c(N)n(CCCC)c(=O)[nH]c1=O	inconclusive [inhibitor, single point]	–
O=C(c1cc2sccc2n1Cc1ccccc1)N1CCCc2ccccc21	inconclusive [inhibitor, single point]	–
NC(=O)C1CCN(CCC(=O)Nc2ccc(Br)cc2)CC1	inconclusive [inhibitor, single point]	–
COc1cc2c(cc1OC)C1=NC(=O)CN1C(SCc1ccccc1)=N2	active: 18.4 µM	–
COc1ccc(OC)c(CN2CCN(C(=O)c3cc(S(=O)(=O)Nc4ccccc4OC)ccc3C)CC2)c1	inconclusive [inhibitor, single point]	–
COc1cc(NC(=O)c2cccs2)c(OC)cc1NC(=O)Cc1ccccc1	inconclusive [inhibitor, single point]	–
O=c1cc(-c2ccccc2)c2ccc3c(c2o1)CN(Cc1cccc(Cl)c1)CO3	inconclusive [inhibitor, single point]	–
CCC(C(=O)NC(C)CCc1ccccc1)n1nc(C)n2c(cc3occc32)c1=O (stereo unspecified)	inconclusive [inhibitor, single point]	–
Cc1cccc(N2C(=O)C(Cl)=C(N3CCOCC3)C2=O)c1	–	inactive: -2.9%
c1ccc2nc3c(cc2c1)CCCCCC3	–	inactive: -12.1%
CC(C)Cn1c(SCc2nc3ccccc3c(=O)[nH]2)nc2ccccc2c1=O	inconclusive [inhibitor, single point]	–
CN(C)CCCN(C(=O)CCOc1ccccc1)c1nc2ccc(F)cc2s1	active: 2.91 µM	–
COc1ccccc1C(=O)NC(=O)COC(=O)CCNS(=O)(=O)c1ccccc1	inconclusive [inhibitor, single point]	–
CCOC(=O)Cc1csc(NC(=O)/C=C/c2ccccc2Cl)n1	inconclusive [inhibitor, single point]	–
